Reference: paper PMC2909587

Biological target: CENP-Q (human) (UniProt Q7L2Z9)
Experiment: SEC + other: glycerol gradient centrifugation

stoichiometry N: 8
Substance: CENP-Q (a stretch of the chain, sequence left out) (natural protein; other documents disagree on this pair)
